# Paper PMC4336329 (PLoS ONE, 2015)
# Among all 310,000 compounds or so, about 2,200 (0.71%) showed an effect of 50% or more. The effect is printed as a negative number. The list shows a part of the results.
# Target: human ether-à-go-go-related gene (hERG) potassium channel (human, UniProt Q12809)
# Test: primary screen, population patch clamp on CHO cells stably expressing hERG
# Chain of human ether-à-go-go-related gene (hERG) potassium channel (Q12809 whole entry, looked up): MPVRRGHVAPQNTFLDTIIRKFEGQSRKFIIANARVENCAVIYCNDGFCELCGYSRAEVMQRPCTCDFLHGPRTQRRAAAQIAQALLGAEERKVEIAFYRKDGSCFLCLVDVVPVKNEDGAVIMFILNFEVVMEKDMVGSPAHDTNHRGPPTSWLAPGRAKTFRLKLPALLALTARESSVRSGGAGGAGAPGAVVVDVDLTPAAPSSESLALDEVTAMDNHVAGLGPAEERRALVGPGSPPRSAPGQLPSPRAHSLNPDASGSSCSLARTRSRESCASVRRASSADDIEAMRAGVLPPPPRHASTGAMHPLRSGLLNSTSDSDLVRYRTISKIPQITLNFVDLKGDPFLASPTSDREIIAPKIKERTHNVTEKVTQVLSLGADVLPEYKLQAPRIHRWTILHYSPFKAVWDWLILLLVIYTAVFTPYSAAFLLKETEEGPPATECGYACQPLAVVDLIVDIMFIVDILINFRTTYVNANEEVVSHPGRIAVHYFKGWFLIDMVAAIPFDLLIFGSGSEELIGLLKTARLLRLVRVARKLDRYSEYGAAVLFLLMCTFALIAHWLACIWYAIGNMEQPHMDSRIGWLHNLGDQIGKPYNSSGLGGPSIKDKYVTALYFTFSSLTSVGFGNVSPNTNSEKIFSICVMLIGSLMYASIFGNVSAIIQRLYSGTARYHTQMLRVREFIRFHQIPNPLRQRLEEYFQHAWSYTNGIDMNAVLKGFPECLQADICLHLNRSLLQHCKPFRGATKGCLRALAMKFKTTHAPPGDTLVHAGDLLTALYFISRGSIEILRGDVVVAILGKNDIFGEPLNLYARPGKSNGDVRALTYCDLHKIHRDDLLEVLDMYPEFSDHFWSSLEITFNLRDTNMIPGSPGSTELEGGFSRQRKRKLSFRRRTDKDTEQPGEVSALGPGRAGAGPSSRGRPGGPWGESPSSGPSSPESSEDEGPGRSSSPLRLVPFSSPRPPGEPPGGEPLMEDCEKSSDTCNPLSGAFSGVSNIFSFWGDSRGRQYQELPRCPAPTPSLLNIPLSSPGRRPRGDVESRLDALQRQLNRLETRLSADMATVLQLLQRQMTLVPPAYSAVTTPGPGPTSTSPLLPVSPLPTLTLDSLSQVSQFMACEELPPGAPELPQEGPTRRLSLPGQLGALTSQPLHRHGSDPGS
row,SMILES,"hERG current change (%, negative = inhibition) at 1uM"
1,Cc1sc(NC(=O)c2ccccc2F)c(CN2CCCCC2C)c1C (centres unmarked),3.89%
2,COc1ccc(-c2nnc(SCCC(=O)O)n2-c2ccccc2)cc1OC,3.26%
3,CCc1ccccc1OCCCN1CCCC1.O=C(O)C(=O)O,3.26%
4,Cn1c(=O)c([N+](=O)[O-])c(NCCCn2ccnc2)c2ccccc21,16.6%
5,O=C(CSc1n[nH]c(-c2ccccc2)n1)c1ccc(O)c(O)c1,1.7%
6,COC(=O)CC1SC(=O)NC1=Nc1ccccc1 (centres unmarked),9.45%
7,O=C(NNc1nc(=O)c2cccnc2s1)c1ccccc1O,13.5%
8,CN(CC(=O)NCc1ccc(F)cc1)CC(=O)Nc1ccc(Cl)c(C(F)(F)F)c1,8.44%
9,O=C(Nc1nc2ccc(Br)cc2s1)c1ccco1,13.6%
10,COc1ccc(NC(=O)C(Cc2ccccc2)n2cccc2)cc1 (centres unmarked),6.16%
11,CC(C)[C@H](NC(N)=O)C(=O)NCCc1ccc(Cl)cc1,8.08%
12,CC1=C(C(=O)OCc2ccc(C)cc2)C(c2ccc(O)c([N+](=O)[O-])c2)NC(=O)N1 (centres unmarked),3.54%
13,O=C(Nc1ccc(Cl)cc1)Nc1ccccc1CC[N+](=O)[O-],15.9%
14,CN(CC(=O)Nc1ccc(F)c(F)c1F)C(=O)CCc1nc2sc3c(c2c(=O)[nH]1)CCCC3,3.41%
15,O=C(Nc1ccccc1)Nc1nnc(Cc2ccc([N+](=O)[O-])cc2)s1,5.51%
16,Cn1nc(C(F)(F)F)c(-c2ccc(Br)cc2)c1NC(=O)CSCC(=O)O,-3.38%
17,CC(C)Oc1ccc(CNC(=O)c2ccc3c(c2)N(C)CCS3)cc1,3.61%
18,CC(=O)NN1C(=O)c2ccccc2NC1c1cccc([N+](=O)[O-])c1 (centres unmarked),6.34%
19,COc1cc(/C=C(\NC(=O)c2ccccc2)C(=O)Nc2cccc(O)c2)c([N+](=O)[O-])cc1OC,3.3%
20,CCc1ccccc1NS(=O)(=O)c1cc2c(cc1C)n(C)c(=O)c(=O)n2C,2.08%
21,CC(C)c1ccc(NC2CCCN(C(=O)c3n[nH]c4c3CCC4)C2)cc1 (centres unmarked),4.97%
22,Oc1ccc(Br)cc1CN1CCN(c2ccccc2)CC1,16.6%
23,CCn1cc(CN2CCN(Cc3ccc(OC)c(C)c3C)C(CCO)C2)c(C)n1 (centres unmarked),13.7%

row,SMILES,"hERG current change (%, negative = inhibition) at 1uM"
1,O=C(NCCNC(=O)c1cc(OCC(F)(F)F)ccc1OCC(F)(F)F)Nc1ccc(OC(F)(F)F)cc1,9.81%
2,COc1ccc(Cc2nnn(CC(=O)O)n2)cc1,5.71%
3,O=C(Nc1ccc(F)cc1)c1ccc2c(=O)n(CC3CCCO3)c(=S)[nH]c2c1 (centres unmarked),17.9%
4,COc1ccc(C2c3ccc4ccccc4c3Oc3ncn4nc(Cc5ccccc5)nc4c32)cc1OC (centres unmarked),11.1%
5,Cc1cccc(NC(=O)c2cc(-c3ccco3)nc3ccccc23)n1,9.09%
6,CC(=O)c1cccc(NC(=O)CN(C)S(=O)(=O)c2cccc3nsnc23)c1,4.29%
7,O=C(NCC1CC1)Nc1ccc(Cl)cc1,16.2%
8,CN(C)S(=O)(=O)c1cccc(C(=O)NCC2(N3CCOCC3)CCCCC2)c1,4.99%
9,Cc1nc2ccccc2c2oc(C(=O)NC3CC3)cc12,9.53%
10,O=C(CSc1nnc(Cn2nnc(-c3ccccc3)n2)n1-c1ccccc1)Nc1ccc(F)cc1,6.77%
11,CCOc1ccc(C(=O)Nc2c3c(nn2-c2ccc(C)cc2)CS(=O)C3)cc1OCC (centres unmarked),12.8%
12,Cc1oc(-c2ccccc2F)nc1CS(=O)(=O)CC(=O)NC1CCCC(C)C1C (centres unmarked),5.89%
13,O=C(CN1C(=O)COc2ccccc21)N(Cc1ccc2c(c1)OCO2)CC1CCCO1 (centres unmarked),3.66%
14,Cc1ccc(N(C)S(=O)(=O)c2nnc(NC(=O)c3ccco3)s2)cc1,10.7%
15,O=C(c1cc2cc(F)ccc2[nH]1)N1CCN(c2ccc(F)cc2)CC1,-4.71%
16,COc1cccc(C2CC3C(=O)C=CC2N3Cc2ccccc2)c1 (centres unmarked),9.39%
17,CCOC(=O)/C=C1/SCC(=O)N1CC(=O)Nc1cccc(F)c1,8.36%
18,O=S(=O)(Nc1nc(SCc2ccc(Cl)cc2)n[nH]1)c1ccc(F)cc1,9.11%
19,COc1ccc(CNC(=O)[C@H](C)NC(=O)[C@@H]2Cc3ccccc3CN2)cc1,18.1%
20,COCCCNC(=O)CNC(=S)N(Cc1ccccc1)Cc1cccnc1,6.09%
21,CC(C)(C)CC(=O)Nc1nnc(CCc2ccccc2)s1,11%
22,C=CCc1ccc(OCCOCCOc2ccccc2[N+](=O)[O-])c(OC)c1,-2.96%
23,CCOC(=O)N1CCC(C(=O)NNC(=O)c2ccc(Cl)cc2Cl)CC1,20.3%

row,SMILES,"hERG current change (%, negative = inhibition) at 1uM"
1,CC1CCCC(N2CCN(C(=O)c3ccc([N+](=O)[O-])cc3)CC2)C1.O=C(O)C(=O)O (centres unmarked),-67.3%
2,COc1ccc(NC(=O)C(=O)NCC(c2ccco2)N2CCc3ccccc3C2)cc1OC (centres unmarked),-28%
3,CCn1cc(C(=O)NCC2CCCO2)c(=O)c2cc(S(=O)(=O)N(C)C)ccc21 (centres unmarked),8.9%
4,O=C(COc1ccc2c3c(c(=O)oc2c1)CCC3)NCCCN1CCCC1=O,16.2%
5,CC(C)CC1C(C#N)=C(N)Oc2n[nH]c(-c3ccccc3)c21 (centres unmarked),10.4%
6,O=C(O)/C=C/c1ccc2c(-c3ccccc3)onc2c1,6.66%
7,Nc1ccc([As](=O)(O)O)cc1,10.5%
8,CCOC(=O)N1CCN(C(=O)CN2C(=O)COc3ccc(S(=O)(=O)N4CCOCC4)cc32)CC1,13.3%
9,Cc1cc(NC(=O)CSc2nccn2-c2cccc(C)c2C)no1,9.25%
10,CC(Nc1nc(-c2cccnc2)nc2ccccc12)c1ccc(F)cc1 (centres unmarked),10.4%
11,COC(=O)C1=C(COc2ccc(C=O)cc2OC)NC(=O)NC1c1cc(C)ccc1C (centres unmarked),14.9%
12,NC(=O)c1ccccc1NC(=O)CSC1=NCCS1,14.4%
13,COC(Cc1n[nH]c(=S)n1-c1ccc(Cl)cc1)OC,4.92%
14,COC(=O)Cc1nnc(NC(=O)C(C)C)s1,7.51%
15,CCOc1ccc(NC(=O)C(c2ccccn2)N(C(=O)CCl)c2ccc(OCC)cc2)cc1 (centres unmarked),10.2%
16,Cc1cc2c(cc1S(=O)(=O)N(C)Cc1ccccc1)n(C)c(=O)c(=O)n2C,-14.7%
17,O=C(CN1CCCCC1)N/N=C/c1ccc(Cl)cc1Cl,-1.76%
18,CC(OCCN(C)C)C(=O)C12CC3CC(CC(C3)C1)C2.Cl (centres unmarked),12.4%
19,CCOC(=O)COc1cc(OCC(=O)OCC)c2c(=O)cc(-c3ccccc3)oc2c1,-29.2%
20,Cc1c(N2C(=O)/C(=C/c3ccccc3)SC2=S)c(=O)n(-c2ccccc2)n1C,2.65%
21,Cc1ccnc(NC(=S)NC(=O)c2cccs2)c1,18.8%
22,O=C(CC(C(=O)N1CCc2ccccc21)n1ccnc1)NCc1ccccc1 (centres unmarked),-15.4%
23,O=C(CSc1nnc(-c2ccco2)o1)c1ccccc1Cl,8.22%

row,SMILES,"hERG current change (%, negative = inhibition) at 1uM"
1,CC(C)=CCCC1(C)C=Cc2c(ccc3c2[nH]c2cc(O)c(C)cc23)O1 (centres unmarked),7.04%
2,Cc1cc(C)nc(N(C#N)CC(=O)Nc2ccccc2)n1,14.9%
3,COc1ccccc1C(=O)NCC(C)(C)CN=C1NS(=O)(=O)c2ccccc21,7.92%
4,Cc1nc2sccn2c(=O)c1S(=O)(=O)N1CCN(c2ccc(F)cc2)CC1,-23%
5,Cc1cc(-c2nnc(SCC(=O)Nc3ccc(Br)cc3F)n2N)n[nH]1,-9.27%
6,O=C(CSc1nnc(-c2cccs2)o1)Nc1cccc(S(=O)(=O)N2CCCCC2)c1,8.77%
7,O=C(CN(c1ccc(F)cc1)S(=O)(=O)c1ccccc1)N1CCOCC1,10%
8,Cn1cc(/C=C/c2cc[n+](C)cc2)c2cc(F)ccc21.[I-],8.46%
9,CCOC(=O)c1c(C)[nH]c(C(=O)OCc2ccc(C)cc2)c1C,11.8%
10,C=CCNC(=O)Nc1ccc(F)cc1F,4.76%
11,COc1cccc(/C=N/NC(=O)CCCC(=O)NC2CCCCC2)c1,-1.03%
12,CC(=O)c1ccc(Oc2ncnc3sccc23)c(CN2CCOCC2)c1,1.61%
13,CCC1(c2cccc(O)c2)CCCCN(C)C1.Cl (centres unmarked),5.49%
14,Cc1ccccc1S(=O)(=O)c1c(C)cc(C)n(C(C)C)c1=O,0.399%
15,COc1ccccc1OCc1nc(-c2ccc([N+](=O)[O-])cc2)no1,10.9%
16,O=C1CC(Sc2cccs2)C(=O)N1c1ccccc1 (centres unmarked),10.8%
17,O=C(Nc1sc2c(c1C(=O)O)CCC2)c1ccc(F)cc1,13.6%
18,N#CC(c1ccccc1)N(CCCCl)C(=O)c1ccc(Br)cc1 (centres unmarked),10.8%
19,CNC(=O)N(c1ccccc1)c1ccccc1,7.85%
20,Cc1ccc(N(CC(=O)NC2CCCCC2)C(=O)CCCC(=O)Nc2ccccn2)cc1,5.91%
